# According to PubChem BioAssay AID588453 (National Center for Advancing Translational Sciences (NCATS), 2011):
# The whole screen tested about 390,000 compounds, of which about 4,000 (1%) were called active. The shares of active, inactive and inconclusive entries below differ from those in the screen. Calls come from the whole dose curve; as a rule, active = well fitted inhibition curve with a large enough effect; inconclusive = small, poorly fitted or top-dose-only effect; inactive = no such curve, though single readings can be large or run the other way. Where the call is inconclusive, the potency comes from a doubtful curve fit.
# Target: Thioredoxin reductase 1, cytoplasmic (Rattus norvegicus) (UniProt O89049)
# UniProt O89049, sequence (O89049 whole entry, looked up): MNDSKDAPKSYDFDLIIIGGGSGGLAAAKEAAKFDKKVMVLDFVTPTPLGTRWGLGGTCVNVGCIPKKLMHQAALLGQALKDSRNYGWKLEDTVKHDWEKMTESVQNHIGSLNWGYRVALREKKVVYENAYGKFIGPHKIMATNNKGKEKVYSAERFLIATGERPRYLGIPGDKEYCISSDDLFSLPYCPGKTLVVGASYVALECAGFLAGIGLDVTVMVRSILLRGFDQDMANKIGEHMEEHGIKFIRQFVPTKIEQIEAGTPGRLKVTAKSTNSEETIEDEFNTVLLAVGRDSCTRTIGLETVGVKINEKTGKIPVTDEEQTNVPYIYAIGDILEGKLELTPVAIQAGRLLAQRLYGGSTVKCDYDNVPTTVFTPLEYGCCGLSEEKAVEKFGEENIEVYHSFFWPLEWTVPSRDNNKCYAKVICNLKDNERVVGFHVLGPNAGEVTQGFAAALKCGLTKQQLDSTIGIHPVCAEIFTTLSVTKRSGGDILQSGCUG
# Test: qHTS Assay for Inhibitors of Mammalian Selenoprotein Thioredoxin Reductase 1 (TrxR1): qHTS; note: nearly all actives have a fitted effect of over 65% in size
# Conditions: recombinant rTrxR1, NADPH fluorescence consumption, selenite substrate; series mostly up to 114 µM
# Procedure, shortened: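 Rat TrxR1 (90 nM in the dispensed reagent) was pre-reduced with 400 uM NADPH for 5 min at room temperature, then incubated with compound for 15 min. After 400 uM selenite was added, NADPH fluorescence (Ex 340/Em 450 nm) was followed for 8 min.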
# % is set by controls: 0 for no effect and ±100 for the full control effect; potency is the fitted concentration of half-maximal effect; tags give direction and shape of the fitted curve.
Compound,Potency,"activity change, negative = inhibition"
C=CCN(C(=O)CN1CCCCC1)c1nc(-c2ccccc2)cs1,"inconclusive: 89.1 µM [inhibitor, single point]",
S=C(NCC1CCCO1)Nc1ccc(Cl)cc1Cl (configuration not stated),"inconclusive: 14.1 µM [inhibitor, full curve]",
NC(=O)CC(O)c1cccc(Cl)c1 (configuration not stated),inactive,
O=C(Nc1nnc(-c2ccncc2)o1)c1cccc(N2C(=O)CCC2=O)c1,inactive,
O=C(O)c1ccc(/C=N/NC(=O)c2cc(-c3cccs3)nc3ccccc23)cc1,"inconclusive: 79.4 µM [inhibitor, single point]",
Cn1nnnc1SCC(=O)c1cccs1,"inconclusive: 31.6 µM [inhibitor, single point]",
COc1cc(C2c3c(oc4cc(C)c(C)cc4c3=O)C(=O)N2CCCN2CCOCC2)ccc1O (configuration not stated),"inconclusive: 20 µM [inhibitor, full curve]",
COc1ccc(Cl)cc1NC(=S)Nc1cccnc1,"inconclusive: 79.4 µM [inhibitor, single point]",
O=C(COC(=O)/C=C/c1ccc(Br)o1)Nc1cccc(S(=O)(=O)N2CCOCC2)c1,"inconclusive: 28.2 µM [inhibitor, partial curve]",
Cc1cccc(C)c1NC(=O)C(c1ccc([N+](=O)[O-])cc1)N(C)C(=O)c1ccccn1 (configuration not stated),"inconclusive: 89.1 µM [inhibitor, single point]",
COC(=O)c1c(C)[nH]c(C)c1C(=O)c1ccccc1Cc1ccccc1,"inconclusive: 18.9 µM [inhibitor, partial curve, poor fit]",
CC/C(=N/Nc1cccc(C)c1)c1cnnc(SC)n1,inactive,
CCOC(=O)C(=O)/C(C#N)=C/Nc1ccccc1,"inconclusive: 25.1 µM [inhibitor, partial curve, poor fit]",
CCN(CC)c1ccc(S(=O)(=O)N2CCOCC2)cc1NC(=O)COC(=O)/C=C/c1ccco1,inactive,
O=c1cc(CSc2ccc(Cl)cc2)[nH]c2[nH]n(-c3ccccc3)c(=O)c12,inactive,
Cc1ccccc1NC(=O)CSc1nnc(NC(=O)c2ccco2)s1,"inconclusive: 89.1 µM [inhibitor, partial curve, poor fit]",
C=CCn1c(SCC(=O)c2ccc(NS(=O)(=O)c3ccccc3)cc2)nnc1-c1cccs1,"inconclusive: 22.4 µM [inhibitor, partial curve, poor fit]",
COc1ccc2cc(C(c3nnnn3Cc3ccc(F)cc3)N3CCCCCC3)c(=O)[nH]c2c1 (configuration not stated),"inconclusive: 14.1 µM [inhibitor, full curve]",
C=CCn1c(CSc2nc3ccccc3s2)nnc1SCC(=O)NCc1ccco1,"inconclusive: 22.4 µM [inhibitor, full curve, poor fit]",
Cc1ccc(/C=C2/SC(=O)NC2=S)o1,active: 56.2 µM,
Cc1ccc(-c2nc(CS(=O)CC(=O)NC3CCCC3)c(C)o2)cc1 (configuration not stated),"inconclusive: 31.6 µM [inhibitor, partial curve, poor fit]",
Cc1ccc(N2CC(C(=O)NCc3ccco3)CC2=O)cc1Cl (configuration not stated),"inconclusive: 50.1 µM [inhibitor, partial curve]",
CCOc1cc(/C=C2\CN(CC)C/C(=C\c3ccc(O)c(OCC)c3)C2=O)ccc1O,"inconclusive: 44.7 µM [inhibitor, partial curve]",

Compound,Potency,"activity change, negative = inhibition"
CNc1sc(C(=O)c2ccccc2F)c(N)c1-c1nc2ccccc2s1,inactive,
COCCN1Cc2cc3cc(C)ccc3nc2SC1=Nc1cccc(OC)c1,inactive,
Cc1ccc(-c2nn(-c3ccccc3)cc2CN(Cc2ccccc2)C(=O)c2ccco2)o1,"inconclusive: 79.4 µM [inhibitor, partial curve, poor fit]",
Cc1cc(C)cc(C(=O)n2nc(C)c(S(=O)(=O)N3CCOCC3)c2C)c1,"inconclusive: 15.8 µM [inhibitor, partial curve]",
O=C1OC(/C(=C\Nc2ccccc2)[N+](=O)[O-])c2ccccc21 (configuration not stated),"inconclusive: 89.1 µM [inhibitor, partial curve, poor fit]",
CC1=CC(c2ccc(Cl)cc2)n2nc(NC(=O)CCC(=O)O)nc2N1 (configuration not stated),"inconclusive: 39.8 µM [inhibitor, partial curve, poor fit]",
CC1CCCC(C)N1C(=O)c1cc(-c2cccs2)on1 (configuration not stated),"inconclusive: 7.08 µM [inhibitor, partial curve, poor fit]",
COc1cc(C(O)CO)ccc1OS(=O)(=O)O (configuration not stated),"inconclusive: 0.0224 µM [inhibitor, full curve, poor fit]",
Cc1ccccc1NC(=O)CCN1C(=O)c2ccccc2Sc2ncccc21,"inconclusive: 44.7 µM [inhibitor, partial curve]",
COc1cccc(NC(=O)CCc2c(C)nc3ncnn3c2C)c1,inactive,
O=C(CCl)N(c1ccccc1)C1CCS(=O)(=O)C1 (configuration not stated),"inconclusive: 22.4 µM [inhibitor, full curve, poor fit]",
CC(=O)c1sc2ccccc2c1OC(=O)c1ccco1,"inconclusive: 89.1 µM [inhibitor, single point]",
Cc1ccc(N2C(=O)C(Cl)=C(Nc3c(C)n(C)n(-c4ccccc4)c3=O)C2=O)cc1,active: 17.8 µM,
N/C(=N\NC(=O)c1cccs1)c1cc2ccccc2oc1=O,"inconclusive: 89.1 µM [inhibitor, single point]",
Cn1c(=O)c2cc(C(=O)NC3CCCCCC3)sc2c2ccccc21,inactive,
CC(=O)c1cc2c(cc1NC(=O)Cn1nc(-c3ccc(C)cc3)ccc1=O)OCO2,inactive,
Cn1ccnc1C(O)c1cc(C(C)(C)C)c(O)c(C(C)(C)C)c1 (configuration not stated),active: 31.6 µM,
COc1cccc(/C=C/c2nc(S(=O)(=O)c3ccccc3)c(N(C)C)o2)c1,"inconclusive: 89.1 µM [inhibitor, single point]",
CCCCOc1ccc(-c2c(C#N)c(N)[nH]c(=S)c2C#N)cc1,"inconclusive: 2 µM [inhibitor, full curve]",
O=C(c1ccccc1O)N1CCOCC1,inactive,
COc1cc(/C=C/C(=O)O)cc(S(=O)(=O)NCCO)c1OC,"inconclusive: 39.8 µM [inhibitor, single point]",
Cc1ccc(-c2nnn(CC(=O)N(c3ccc(F)cc3)C(C(=O)NC(C)(C)C)c3ccco3)n2)o1 (configuration not stated),"inconclusive: 3.55 µM [inhibitor, single point]",
CCn1c2ccccc2c2cc(/C=N/n3cn[nH]c3=S)ccc21,"inconclusive: 15.8 µM [inhibitor, full curve]",

Compound,Potency,"activity change, negative = inhibition"
Cc1ccc(-c2[nH]c3ccccc3c2C(C[N+](=O)[O-])c2ccco2)cc1 (configuration not stated),"inconclusive: 56.2 µM [inhibitor, partial curve, poor fit]",
Cn1nnc(NC(=S)NC(=O)c2cccs2)n1,"inconclusive: 31.6 µM [inhibitor, single point]",
COc1ccc(C2Nc3ccccc3NC3=C2C(=O)CC(C)(C)C3)cc1O (configuration not stated),"inconclusive: 39.8 µM [inhibitor, partial curve, poor fit]",
O=C(NC(=S)Nc1ccccc1Cl)c1ccco1,"inconclusive: 22.4 µM [inhibitor, full curve, poor fit]",
C=CCNC(=S)/N=c1/ccccn1Cc1ccccc1,"inconclusive: 44.7 µM [inhibitor, partial curve, poor fit]",
Cc1ccccc1NC(=S)N(CCN(C)C)C(C)c1ccccn1 (configuration not stated),"inconclusive: 89.1 µM [inhibitor, single point]",
CC(C)Sc1oc(-c2ccco2)nc1S(=O)(=O)c1ccccc1,"inconclusive: 35.5 µM [inhibitor, partial curve]",
CCc1ccc2[nH]c3nc(SCC(=O)NNC(=O)c4ccc(C(C)(C)C)cc4)nnc3c2c1,"inconclusive: 63.1 µM [inhibitor, partial curve, poor fit]",
O=C1CN(C(=O)COC(=O)/C=C/c2ccco2)c2ccccc2N1,inactive,
O=C(Nc1ccccc1-c1ccccc1)C1CCCCC1,"inconclusive: 89.1 µM [inhibitor, single point]",
c1coc(-c2nn3c(-c4ccco4)nnc3s2)c1,"inconclusive: 11.2 µM [inhibitor, full curve, poor fit]",
CCOc1cc(NC(=S)NCCCN2CCOCC2)c(OCC)cc1NC(=O)c1ccc(C)cc1,"inconclusive: 12.6 µM [inhibitor, full curve]",
C/C(=N\Nc1ncc(Cl)cc1Cl)c1ccccn1,inactive,
Cc1nnsc1C(=O)Oc1ccccc1Cl,"inconclusive: 20 µM [inhibitor, partial curve, poor fit]",
COc1ccc(S(=O)(=O)N2CCOCC2)cc1NC(=O)CSc1nnc(C2CC2)n1N,inactive,
COc1ccc(C(=O)N=c2sc3cc(Cl)ccc3n2C)cc1,"inconclusive: 89.1 µM [inhibitor, single point]",
O=C1CCCc2c1cc(C(=O)NCc1ccco1)c(=O)n2-c1ccc(Cl)cc1,"inconclusive: 31.6 µM [inhibitor, full curve]",
CCOC(=O)C(Cc1ccccc1)(NC(C)=O)C(=O)OCC,,inactive: -0.803% [at 2.29 µM]
O=C(N/N=C/c1cc([N+](=O)[O-])cc([N+](=O)[O-])c1O)/C(=C\c1cccs1)NC(=O)c1ccccc1,"inconclusive: 56.2 µM [inhibitor, partial curve, poor fit]",
CN(C(=O)CC1C(=O)NCCN1Cc1ccccc1F)C1CCOCC1 (configuration not stated),"inconclusive: 39.8 µM [inhibitor, partial curve]",
O=C(CCN=C1NS(=O)(=O)c2ccccc21)OCc1nnc(-c2ccc([N+](=O)[O-])cc2)o1,inactive,
